The other results are listed elsewhere or left out. At the low end of the ranking, values are background and their order means little. Measured with an extract: partners may take part in the binding.
Each sequence was assayed against T1, HNF4alpha8 (COS-7 nuclear extract) (UniProt P41235-5) (assay: protein-binding microarray). Conditions: COS-7 nuclear extract on double-stranded Agilent 4x180k PBM; binding buffer, salt, pH and temperature not given; high values mean tight binding; double strand, one strand shown; sequences stand for … in …GCCTAGGGAGATTAGAGTATCGGTCGA.
T1 sequence: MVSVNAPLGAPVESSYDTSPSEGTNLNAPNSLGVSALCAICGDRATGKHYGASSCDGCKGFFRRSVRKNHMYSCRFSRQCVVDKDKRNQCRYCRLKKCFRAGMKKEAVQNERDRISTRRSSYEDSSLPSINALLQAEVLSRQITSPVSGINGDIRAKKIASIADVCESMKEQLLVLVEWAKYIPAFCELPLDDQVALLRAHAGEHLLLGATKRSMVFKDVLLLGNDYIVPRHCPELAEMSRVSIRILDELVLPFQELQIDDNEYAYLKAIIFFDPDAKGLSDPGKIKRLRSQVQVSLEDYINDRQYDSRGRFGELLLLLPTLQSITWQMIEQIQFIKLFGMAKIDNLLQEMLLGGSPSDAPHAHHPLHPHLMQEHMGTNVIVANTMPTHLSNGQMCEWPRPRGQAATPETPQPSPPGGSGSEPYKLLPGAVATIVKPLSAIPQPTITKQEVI

Row | Sequence | binding signal (log2 normalized intensity)
1 | AACCTGTTCCAAAGTCCACCGTGGTGTAGA | 5.07
2 | CATCCCCTAAAACATCAAATACCTCCAAGA | 0.697
3 | TTCCTGGCCTCTCTGCAAATTTGCCTTGTC | 0.448
4 | ACTATTTTCCTAAATATGTTCCAAAGTTCA | 4.37
5 | GTTAGACAGTGCCTATGTTGGAATGCCTAA | -1.24
6 | TTACTGTGTAAACTTTGCAGCAGATAATTA | -1.19
7 | GTCCAGAGTCCACGTACTTAACTACTACAC | 1.48
8 | TATTTCACAGGGATAAGCATGGAGATGAGT | -0.169
9 | CACACCCCACGTACATTGCACCCTCCAGGA | 2.53
10 | ATCTCACTAACAGTGTTCCTCGTGTGTTCT | 2.17
11 | TCCAAAATCTGCATCCCCAAGCTGTTATTC | 2.05
12 | ATTCCACACTGCAGGCTCTGTCCCCGCCCA | 3.09
13 | CTGGTAGCAGGGGTGGTTCATTTGCACTTG | 1.78
14 | ATCGCTTCCAGGGTTACCGGCAGAGAGAAG | -1.25
15 | ATACCACTGATAAGGTTCCAGCAAAGAGAT | -0.56
16 | TACTTAGTGTTTTATGTGTATTTACTTATT | 1.74
17 | CAAACCAAAAAGTTGGTTGGAGCTATGGGC | -1.18
18 | TGGACCTGCTCTGTTTTCTTTCGGTCACCC | 2.16
19 | CTTAGGGAACAAAGGTCAGTCCCGCAGTGA | 5.44
20 | TGATCCTGGTAGCAGGGGTGGTTCATTTGC | 1.36
21 | CTCCCCCTTTCTCCGCTAAGTGGCTCGACA | 2.41
22 | GTCCAAGTCACTATCACCTCTCCCACCTGA | 2.26
23 | CTGGGCCCTGCCTGACCTGCCCTTTGTCCC | 6.91
24 | CATTGTGTGCAGACCTTCTCTGGCCCTCAC | -0.0778
25 | TGACCTGGAGCATGACCCTTTGCAGGTGGG | 2.44

Row | Sequence | binding signal (log2 normalized intensity)
26 | ATTAAATCTTGTTGGCTTGACGCTAACTTC | -1.2
27 | ACCCTGCAATTCCCCTGGGCCCACGGCTCT | -1.35
28 | TAGGCATTCTTAGACACAGTCTGAGATAGA | -1.35
29 | GCTCAGTCCAAGTCCAAAGGTCTGAGAACC | 4.88
30 | TGGGAGCCTTGCACACTCGCCTGGCTCCCC | -1.29
31 | CCTTCACTATTTTCAAAGGTCAACATACAG | 3.49
32 | GGATTTTTTCTTGGACTTTGGTCATCCTTT | 7.39
33 | TAAAATTCCCTGTGGAATTTTAAGCTTCAC | -1.08
34 | GTTCCCCCGTGTAGACACTCATCCCTTGCA | 2.07
35 | AGGTGAAGGCTGACCACGGGGGCCGCTCTC | -1.27
36 | CCCCCTATCCCAAGACATCAATTAACTTGT | 3.09
37 | TACACAACAGCACTTGTGCAGTTTTTCTGC | -1.33
38 | TAAGATACTGAAATGCCAAAAAAGAAGAAG | -1.35
39 | GAGGGAACGCCCGACGCGAAGGCAGTGTGG | -1.16
40 | AGCATGGAGATGAGTGGGTTCACTTTGAGC | 1.77
41 | CCCACCTCTCAGACAGAGCTGGTCTGTGCT | -1.28
42 | TTGTTGTTATCCATTTAAAAAGTATTTATT | 0.32
43 | CCAGTTTTCCCAAAGGAGCTTTATTGGTTC | 1.15
44 | TTGGAATGTTCCAAGACCTTTGAAGCTTGC | 2.94
45 | GGCCATGTGCAGAGGAGGGGGCAGGAGCCC | -1.3
46 | GTTTTGTGAGTTTTCTTCTGAAATTGCTCA | -0.253
47 | TCGCAGTCATAAATACTCATTATGTTGCTG | -1.2
48 | TGGAAGAGCCTGCAAGGGAGACCAGGAAAG | -1.19
49 | GACGAGCTGTCACTGGCTGCTGCTCAGGAG | -1.23
50 | GCCCTTTGCCCTTTGCCCAACCCTCTCCCA | 6.2

Row | Sequence | binding signal (log2 normalized intensity)
51 | TTGATCAGGGACCTTTGTTCCTTTACACAT | 4.02
52 | CTTTGGAACCTGCCCTCTGTCCCATGGTGT | 2.85
53 | TCCCCTCCCTCAGCTCTGCCCAGACCTTAT | 3.84
54 | TGTGCAAAATACCTGGAAGTATTTATTGAG | 0.655
55 | GTTATCTCATTACTCTGCATAAGGACCTCC | 1.12
56 | CCAAGGTTCTCCAGGGACCCCCCGACCCCA | 5.59
57 | GTGCTCCCTCCCCCTGCATGAACCTTTGCT | 3.72
58 | AGAAAAAGGAGCAGATGGCTAGTGACTCAG | -1.31
59 | CTGCACCCTACGTAAATGCACGGAAGCCTT | -1.3
60 | CTGGCCTGCTGGGAACTCAGGATCAAACAG | -1.23
61 | CTTTATCTCTCTCTCTTTCTTCCCCCACTC | 4.52
62 | TTTGGCTGGTAGAGCAGGTTTCAGAGGCTC | -1.01
63 | AGAGTTAGCTAAGCTTCACTGACATTCCAG | -0.937
64 | GTCCGGCAGAGCTATGGAATTTTGGCCTTT | 3.88
65 | CTATTTCTGACCTTTGCACCAGAGATAATA | 6.97
66 | GGATCAATGGATCCACTCAGTATGGCAACC | -1.11
67 | AGGGCTGAAGGTTAATTCGCTCATCAATGG | 1.16
68 | TTCCACTGACTTGCAACCTTTGCCCTGTTG | 7.2
69 | GGCCAGATAAAGCAGGTTGTACCTTGACCC | 9.73
70 | TCCTCAGGGAGGAAGGCAACCACAGCCTCT | -1.24
71 | AAGTCCAAAGTTCTTGGCCAGGCATGGAGA | 2.75
72 | CCCCACCCCACTCCACCTACGCTACGCACC | 4.25
73 | ACCCAGAGCCCCACCGTTGTGTAATCTCTT | 1.41
74 | TGAAATATGCCCAGAGCTTTGTTCTGTTCC | 0.565
75 | TGTTGCTCTCTTGCCATTCGTGGATGAGCG | -1.33

Row | Sequence | binding signal (log2 normalized intensity)
76 | CTGGGAGGTAAACTGTAAACCTTTGAAATG | 1.12
77 | CTTGAGGAGCCCTATCCGCAGCTGCTGACA | -1.37
78 | TATCAGCTCTCCGTGGACTTTGCCCCCTAC | 11.3
79 | TATGTGTGTGCTTTAACAAGGTGTGTTTGA | 1.75
80 | TCAGACAAGTTGCAGGGATGGACTTTAATC | 7.17
81 | ATGGGCCCCAGTAAAAACAGTGGGCCTTAA | -1.37
82 | AGATAAAAAGGCTAGAGCGCGCTGGAATCT | -1.32
83 | CCTTTGAGATAGCTATGATTATCCTTATCT | -0.293
84 | GAGTGTATAGTGGCACTGTTATGACCCATT | 2.73
85 | AGGAAACTCTTTCCTAACAGTGAATGTTTC | 0.554
86 | GAGGACTTTGATCAGCAATGGAGAGTGATC | 3.05
87 | GCTGCTCAGTTTAAGTCAAAATATAAGGTC | 1.76
88 | ACTTGAAGACATTCCAAGAAGAGCCAATAG | -1.32
89 | CCTAAACAGCAACTGTAGTGCATAGTGGGT | 0.567
90 | ACTGTCTAGCTGTGTAACCCTGGACAAGTT | 0.855
91 | GACACCTTCAGGGCTGAGCCCACAGTCCAG | -1.36
92 | GCTGTGTGGCATGGTGTTTTGCCTTACACA | 0.866
93 | TAGGGCCCATGCCCTTAGCCACTGCATGAT | -0.914
94 | TGAACTGACTGGGGTTAACGTCCAAAGGTA | 3.29
95 | GTGAGGAATGCAACCACACCAACATGGACT | 2.07
96 | ATACTGCCTTTCTAGAACCAGAATTCCAGA | -1.26
97 | CTTTGAGCATCGCTGGACTCTGCTCCTAAG | 4.67
98 | ATTCTTGTCAATGACCCTAATGGGGTACTT | 2.36
99 | GGCTGTGAAATATTTGAGTTCTTCAAGTCA | 0.463
100 | AGGCAGCCACCCACAAGCCAAGGAGAGAGG | -1.24

Row | Sequence | binding signal (log2 normalized intensity)
101 | GGGCCTACCTGCCTGAGCTATCTGTTTGAG | -1.23
102 | CTGCCTTATCGTATTCTTATCAATACCTGT | 1.36
103 | AGTATCATGTTGGCATTCCAGGATGAAGGA | -0.0479
104 | CACTGTTTATTTTGTGTGATACTCAAGGCA | 1.66
105 | TTAAGGCCAGATGGCCACCCTTCAGCAAAT | -1.27
106 | GCTGTCCAAGGTGCTAGCTCCGACTCAGTG | -1.33
107 | TAATGGCAGAATCAAAGGTCAAAATATCTG | 4.27
108 | GAACCCACATCACTGGCCAAAGGTAATAGG | 0.524
109 | GGAACACGAGGTGAGAGGCGGAACAAGGCT | -1.24
110 | CAGTCTATCAGACCAGCATTCTTTCTGCTG | -1.19
111 | GGCATCTACTTTTAAAACGCTCAAATAAGC | -1.33
112 | CAAACCTTTGACCTTTCCATAGTTCCGAGT | 4.3
113 | ACCAGGCAGTTTCCCGGTTCCTGATCTCAG | -0.87
114 | GGTGGAATGGAAAGAATATGAACTTTGGAA | 6.33
115 | AATATAGGATCATGTTGTCTGCAAACAGAG | -0.445
116 | CACCTTCTTTCTCCCAGAGGTCGATCTGAT | 2.25
117 | CAGACCCTGGAATTCCAGAAATCTTACTGA | -1.36
118 | TACCATTCCCACCCCATTTCACAGCAACCT | 1.42
119 | TTTGAGGATTATGGAGATGGAGATGGCCTG | 0.867
120 | CTGAACTTTTGGCTCCCTGGGGTTAAAATG | 2.5
121 | CCACGCCCGCCGCCAGGTGGCCGAGCAGGA | -1.3
122 | GATTACATTGAGTCCACTGAGATCACTTGG | 0.973
123 | CCCCGGGGCCGCCTTGGAAAACCCGGCGCG | -1.19
124 | ATTACTGACCCTTGCACTGTAAGATCAAGA | 4.11
125 | ACAGGCTTTGAGCATCGCTGGACTCTGCTC | 4.91

Row | Sequence | binding signal (log2 normalized intensity)
126 | CCACAGTCCTTAAGATCCAAAGGAGTGGTC | 0.496
127 | TAAGTTTCTGTCTCACCTGTAAATGTCTCT | 0.512
128 | TAATGCGACTTGCCTTGTGTACTCTATCCA | 1.21
129 | GCGGTCCGGACTCTGCCCCACAATTCTTGG | 3.12
130 | TTGCCTACATAAGGAGCAGCACTTTGACCT | 5.88
131 | TTTGGGGGTTGGTATTACAAAGCAATCTAC | 0.18
132 | TGCTAGACAAGGGAATTACTCTTCTATTAC | -1.29
133 | TTGGCCTCTACAGCTACTCCAGCTGGAGAA | -1.04
134 | GTCATAAATACTCATTATGTTGCTGATAAA | 1.18
135 | CAATTCCTTATCTCGTTCTGATAGCAAGGA | 1.51
136 | CAAAGGGCACCCTTGATGTGTATTTGTAGC | 1.61
137 | TTGCTTAAGCTTTCTGTCTGCAGCTGAACC | 1.42
138 | ACCTTTCTCCCTTTTCACAGGAGAGGAGAA | 0.813
139 | GGTTTTCGGTTTTCAAATGAACCCGGCAGG | 2.45
140 | TATAGTTTATCTACCTTTGTACCTTTAGTA | 4.65
141 | GGCCATCTTCCTCAACATGATGCTTTAGGC | -0.578
142 | CAAGAGTGACCTTTGCTCCAGTTCCCAATA | 6.59
143 | ATGACAATAAATTATACCAACTATTTAAGA | -1.36
144 | TGATCCTGAAGACAAAGCACAATCAAAGCA | -1.35
145 | CAACTTAACCCCAGTTTAGCAATTTGCTCT | 0.99

Source: PMC10726135
